Reference: the supplement of paper PMC8728848
This is one part of the list.

Assays:
Experiment in all cases: glycan array binding signal (z-score within array); higher = stronger binding
Details in all cases: glycan notation: IUPAC condensed, linker removed
[1] = biological target: Neu5Ac(a2-3)Gal(b1-3)GalNAc
How it was run: (§1)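 Glycan array data were curated from 3228 arrays in the Consortium for Functional Glycomics database and kept only where the protein sequence was available. Glycan names were converted to IUPAC-condensed notation, and columns mapping to the same glycan were averaged. The binding signal is a within-array Z-score, averaged across arrays of the same protein sequence at different concentrations or buffers and across linkers. Negative Z-scores can be read as non-binding.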

[2] = biological target: Neu5Ac(a2-3)Gal(b1-3)GalNAc(b1-3)Gal(a1-4)Gal(b1-4)Glc
How it was run: as §1

[3] = biological target: Neu5Ac(a2-3)Gal(b1-3)GalNAc(b1-4)Gal(b1-4)Glc
How it was run: as §1

[4] = biological target: Neu5Ac(a2-3)Gal(b1-3)GalNAc(b1-4)[Neu5Ac(a2-3)]Gal(b1-4)Glc
How it was run: as §1

[5] = biological target: Neu5Ac(a2-3)Gal(b1-3)GalNAc(b1-4)[Neu5Ac(a2-8)Neu5Ac(a2-3)]Gal(b1-4)Glc
How it was run: as §1

[6] = biological target: Neu5Ac(a2-3)Gal(b1-3)GalNAc6S
How it was run: as §1

[7] = biological target: Neu5Ac(a2-3)Gal(b1-3)GlcNAc
How it was run: as §1

[8] = biological target: Neu5Ac(a2-3)Gal(b1-3)GlcNAc(b1-2)Man
How it was run: as §1

[9] = biological target: Neu5Ac(a2-3)Gal(b1-3)GlcNAc(b1-2)Man(a1-3)[GlcNAc(b1-4)][Neu5Ac(a2-3)Gal(b1-3)GlcNAc(b1-2)Man(a1-6)]Man(b1-4)GlcNAc(b1-4)GlcNAc
How it was run: as §1

[10] = biological target: Neu5Ac(a2-3)Gal(b1-3)GlcNAc(b1-2)Man(a1-3)[Neu5Ac(a2-3)Gal(b1-3)GlcNAc(b1-2)Man(a1-6)]Man(b1-4)GlcNAc(b1-4)GlcNAc
How it was run: as §1

[11] = biological target: Neu5Ac(a2-3)Gal(b1-3)GlcNAc(b1-2)[Neu5Ac(a2-3)Gal(b1-3)GlcNAc(b1-4)]Man(a1-6)[Neu5Ac(a2-3)Gal(b1-3)GlcNAc(b1-2)Man(a1-3)]Man(b1-4)GlcNAc(b1-4)GlcNAc
How it was run: as §1

[12] = biological target: Neu5Ac(a2-3)Gal(b1-3)GlcNAc(b1-3)Gal(b1-3)GlcNAc
How it was run: as §1

[13] = biological target: Neu5Ac(a2-3)Gal(b1-3)GlcNAc(b1-3)Gal(b1-4)GlcNAc
How it was run: as §1

[14] = biological target: Neu5Ac(a2-3)Gal(b1-3)GlcNAc(b1-3)GalNAc
How it was run: as §1

[15] = biological target: Neu5Ac(a2-3)Gal(b1-3)GlcNAc(b1-6)GalNAc
How it was run: as §1

[16] = biological target: Neu5Ac(a2-3)Gal(b1-3)GlcNAc6S
How it was run: as §1

[17] = biological target: Neu5Ac(a2-3)Gal(b1-3)[Fuc(a1-4)]GlcNAc
How it was run: as §1

[18] = biological target: Neu5Ac(a2-3)Gal(b1-3)[Fuc(a1-4)]GlcNAc(b1-3)Gal(b1-3)[Fuc(a1-4)]GlcNAc
How it was run: as §1

[19] = biological target: Neu5Ac(a2-3)Gal(b1-3)[Fuc(a1-4)]GlcNAc(b1-3)Gal(b1-4)[Fuc(a1-3)]GlcNAc
How it was run: as §1

[20] = biological target: Neu5Ac(a2-3)Gal(b1-3)[GlcNAc(b1-6)]GalNAc
How it was run: as §1

[21] = biological target: Neu5Ac(a2-3)Gal(b1-3)[Neu5Ac(a2-6)]GalNAc
How it was run: as §1

[22] = biological target: Neu5Ac(a2-3)Gal(b1-3)[Neu5Ac(a2-6)]GlcNAc(b1-3)[Fuc(a1-3)[Gal(b1-4)]GlcNAc(b1-6)]Gal(b1-4)Glc
How it was run: as §1

[23] = biological target: Neu5Ac(a2-3)Gal(b1-3)]Neu5Ac(a2-3)Gal(b1-4)]GlcNAc
How it was run: as §1

[24] = biological target: Neu5Ac(a2-3)Gal(b1-4)Glc
How it was run: as §1

[25] = biological target: Neu5Ac(a2-3)Gal(b1-4)GlcNAc
How it was run: as §1

[26] = biological target: Neu5Ac(a2-3)Gal(b1-4)GlcNAc(b1-2)Man
How it was run: as §1

[27] = biological target: Neu5Ac(a2-3)Gal(b1-4)GlcNAc(b1-2)Man(a1-3)[GlcNAc(b1-4)][Neu5Ac(a2-3)Gal(b1-4)GlcNAc(b1-2)Man(a1-6)]Man(b1-4)GlcNAc(b1-4)GlcNAc
How it was run: as §1

[28] = biological target: Neu5Ac(a2-3)Gal(b1-4)GlcNAc(b1-2)Man(a1-3)[Neu5Ac(a2-3)Gal(b1-4)GlcNAc(b1-2)Man(a1-6)]Man(b1-4)GlcNAc(b1-4)GlcNAc
How it was run: as §1

[29] = biological target: Neu5Ac(a2-3)Gal(b1-4)GlcNAc(b1-2)Man(a1-3)[Neu5Ac(a2-3)Gal(b1-4)GlcNAc(b1-2)Man(a1-6)]Man(b1-4)GlcNAc(b1-4)[Fuc(a1-6)]GlcNAc
How it was run: as §1

[30] = biological target: Neu5Ac(a2-3)Gal(b1-4)GlcNAc(b1-2)Man(a1-3)[Neu5Ac(a2-6)Gal(b1-4)GlcNAc(b1-2)Man(a1-6)]Man(b1-4)GlcNAc(b1-4)GlcNAc
How it was run: as §1

[31] = biological target: Neu5Ac(a2-3)Gal(b1-4)GlcNAc(b1-2)[Neu5Ac(a2-3)Gal(b1-4)GlcNAc(b1-4)]Man(a1-3)[GlcNAc(b1-4)][Neu5Ac(a2-3)Gal(b1-4)GlcNAc(b1-2)[Neu5Ac(a2-3)Gal(b1-4)GlcNAc(b1-6)]Man(a1-6)]Man(b1-4)GlcNAc(b1-4)GlcNAc
How it was run: as §1

[32] = biological target: Neu5Ac(a2-3)Gal(b1-4)GlcNAc(b1-2)[Neu5Ac(a2-3)Gal(b1-4)GlcNAc(b1-4)]Man(a1-3)[GlcNAc(b1-4)][Neu5Ac(a2-3)Gal(b1-4)GlcNAc(b1-4)Man(a1-6)]Man(b1-4)GlcNAc(b1-4)GlcNAc
How it was run: as §1

[33] = biological target: Neu5Ac(a2-3)Gal(b1-4)GlcNAc(b1-2)[Neu5Ac(a2-3)Gal(b1-4)GlcNAc(b1-6)]Man(a1-6)[Neu5Ac(a2-3)Gal(b1-4)GlcNAc(b1-2)Man(a1-3)][GlcNAc(b1-4)]Man(b1-4)GlcNAc(b1-4)GlcNAc
How it was run: as §1

[34] = biological target: Neu5Ac(a2-3)Gal(b1-4)GlcNAc(b1-3)Gal
How it was run: as §1

[35] = biological target: Neu5Ac(a2-3)Gal(b1-4)GlcNAc(b1-3)Gal(b1-3)GlcNAc
How it was run: as §1

[36] = biological target: Neu5Ac(a2-3)Gal(b1-4)GlcNAc(b1-3)Gal(b1-4)GlcNAc
How it was run: as §1

[37] = biological target: Neu5Ac(a2-3)Gal(b1-4)GlcNAc(b1-3)Gal(b1-4)GlcNAc(b1-2)Man(a1-3)[Neu5Ac(a2-3)Gal(b1-4)GlcNAc(b1-3)Gal(b1-4)GlcNAc(b1-2)Man(a1-6)]Man(b1-4)GlcNAc(b1-4)GlcNAc
How it was run: as §1

[38] = biological target: Neu5Ac(a2-3)Gal(b1-4)GlcNAc(b1-3)Gal(b1-4)GlcNAc(b1-3)Gal(b1-4)GlcNAc
How it was run: as §1

[39] = biological target: Neu5Ac(a2-3)Gal(b1-4)GlcNAc(b1-3)Gal(b1-4)GlcNAc(b1-3)Gal(b1-4)GlcNAc(b1-2)Man(a1-3)[Neu5Ac(a2-3)Gal(b1-4)GlcNAc(b1-3)Gal(b1-4)GlcNAc(b1-3)Gal(b1-4)GlcNAc(b1-2)Man(a1-6)]GalNAc
How it was run: as §1

[40] = biological target: Neu5Ac(a2-3)Gal(b1-4)GlcNAc(b1-3)Gal(b1-4)GlcNAc(b1-3)GalNAc
How it was run: as §1

[41] = biological target: Neu5Ac(a2-3)Gal(b1-4)GlcNAc(b1-3)Gal(b1-4)GlcNAc(b1-3)[Neu5Ac(a2-3)Gal(b1-4)GlcNAc(b1-3)Gal(b1-4)GlcNAc(b1-6)]GalNAc
How it was run: as §1

[42] = biological target: Neu5Ac(a2-3)Gal(b1-4)GlcNAc(b1-3)Gal(b1-4)GlcNAc(b1-6)[Gal(b1-3)]GalNAc
How it was run: as §1

[43] = biological target: Neu5Ac(a2-3)Gal(b1-4)GlcNAc(b1-3)Gal(b1-4)[Fuc(a1-3)]GlcNAc
How it was run: as §1

[44] = biological target: Neu5Ac(a2-3)Gal(b1-4)GlcNAc(b1-3)GalNAc
How it was run: as §1

[45] = biological target: Neu5Ac(a2-3)Gal(b1-4)GlcNAc(b1-3)[Neu5Ac(a2-3)Gal(b1-4)GlcNAc(b1-6)]GalNAc
How it was run: as §1

B1: PfulAvr4 (Pseudocercospora fuligena) (protein)
chain: HHHHHHDYKDDDDKTYVQDKTPAFVCPAADIKTTKCLGPKDCLYPSPKTCNGYIQCSPADDSYLTGIIHEMPCPSGLLWNDNKKWCDWPENTTCGLVKSAGATEVDATKQGPTPGKYHG
B1 was tested, and the “glycan array binding signal (z-score)” value [1] was -0.083, the “glycan array binding signal (z-score)” value [2] was -0.164 and the “glycan array binding signal (z-score)” value [3] was -0.134. For the same binder, the “glycan array binding signal (z-score)” value [4] was -0.118, the “glycan array binding signal (z-score)” value [5] was 0.032 and the “glycan array binding signal (z-score)” value [6] was -0.124. For the same binder, the “glycan array binding signal (z-score)” value [7] was -0.137, the “glycan array binding signal (z-score)” value [8] was -0.12 and the “glycan array binding signal (z-score)” value [9] was -0.093. For the same binder, the “glycan array binding signal (z-score)” value [10] was 1.27, the “glycan array binding signal (z-score)” value [11] was -0.077 and the “glycan array binding signal (z-score)” value [12] was -0.097. The “glycan array binding signal (z-score)” value [13] was -0.088, the “glycan array binding signal (z-score)” value [14] was -0.179 and the “glycan array binding signal (z-score)” value [15] was -0.082. For the same binder, the “glycan array binding signal (z-score)” value [16] was -0.115, the “glycan array binding signal (z-score)” value [17] was -0.143 and the “glycan array binding signal (z-score)” value [18] was -0.104. For the same binder, the “glycan array binding signal (z-score)” value [19] was -0.108, the “glycan array binding signal (z-score)” value [20] was -0.161 and the “glycan array binding signal (z-score)” value [21] was -0.088. The “glycan array binding signal (z-score)” value [22] was -0.081, the “glycan array binding signal (z-score)” value [23] was -0.163 and the “glycan array binding signal (z-score)” value [24] was -0.088. The “glycan array binding signal (z-score)” value [25] was -0.104, the “glycan array binding signal (z-score)” value [26] was 0.348 and the “glycan array binding signal (z-score)” value [27] was -0.112. For the same binder, the “glycan array binding signal (z-score)” value [28] was -0.065, the “glycan array binding signal (z-score)” value [29] was -0.084 and the “glycan array binding signal (z-score)” value [30] was 0.081. The “glycan array binding signal (z-score)” value [31] was -0.137, the “glycan array binding signal (z-score)” value [32] was -0.056 and the “glycan array binding signal (z-score)” value [33] was -0.064. For the same binder, the “glycan array binding signal (z-score)” value [34] was -0.129, the “glycan array binding signal (z-score)” value [35] was -0.121 and the “glycan array binding signal (z-score)” value [36] was -0.155. For the same binder, the “glycan array binding signal (z-score)” value [37] was -0.094, the “glycan array binding signal (z-score)” value [38] was -0.119 and the “glycan array binding signal (z-score)” value [39] was 0.179. The “glycan array binding signal (z-score)” value [40] was -0.095, the “glycan array binding signal (z-score)” value [41] was 0.035 and the “glycan array binding signal (z-score)” value [42] was -0.174. For the same binder, the “glycan array binding signal (z-score)” value [43] was -0.123, the “glycan array binding signal (z-score)” value [44] was -0.086 and the “glycan array binding signal (z-score)” value [45] was 0.019.
